# Data as given in the supplement of paper PMC8728848.
# The list shows a part of the results.
# Columns and labels:
# Assay in all cases: glycan array binding signal (z-score within array); higher = stronger binding
# Settings in all cases: glycan notation: IUPAC condensed, linker removed
# [1] = molecular target: Man(a1-2)Man(a1-3)[Man(a1-2)Man(a1-6)]Man(a1-6)[Man(a1-2)Man(a1-2)Man(a1-3)]Man
# In short: (§1)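 Glycan array data were curated from 3228 arrays in the Consortium for Functional Glycomics database and kept only where the protein sequence was available. Glycan names were converted to IUPAC-condensed notation, and columns mapping to the same glycan were averaged. The binding signal is a within-array Z-score, averaged across arrays of the same protein sequence at different concentrations or buffers and across linkers. Negative Z-scores can be read as non-binding.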
# [2] = molecular target: Man(a1-2)Man(a1-3)[Man(a1-2)Man(a1-6)]Man(a1-6)[Man(a1-2)Man(a1-2)Man(a1-3)]Man(b1-4)GlcNAc(b1-4)GlcNAc
# In short: as §1
# [3] = molecular target: Man(a1-2)Man(a1-3)[Man(a1-6)]Man(a1-6)[Man(a1-2)Man(a1-3)]Man(b1-4)GlcNAc(b1-4)GlcNAc
# In short: as §1
# [4] = molecular target: Man(a1-2)Man(a1-6)[Man(a1-3)]Man(a1-6)[Man(a1-2)Man(a1-2)Man(a1-3)]Man
# In short: as §1
# [5] = molecular target: Man(a1-2)Man(a1-6)[Man(a1-3)]Man(a1-6)[Man(a1-2)Man(a1-2)Man(a1-3)]Man(b1-4)GlcNAc(b1-4)GlcNAc
# In short: as §1
# Man(a1-3)[Man(a1-6)]Man = molecular target: Man(a1-3)[Man(a1-6)]Man
# In short: as §1
# [6] = molecular target: Man(a1-3)[Man(a1-6)]Man(a1-6)[Man(a1-2)Man(a1-3)]Man(b1-4)GlcNAc(b1-4)GlcNAc
# In short: as §1
# [7] = molecular target: Man(a1-3)[Man(a1-6)]Man(a1-6)[Man(a1-3)]Man
# In short: as §1
# [8] = molecular target: Man(a1-3)[Man(a1-6)]Man(a1-6)[Man(a1-3)]Man(b1-4)GlcNAc(b1-4)GlcNAc
# In short: as §1
# [9] = molecular target: Man(a1-3)[Man(a1-6)]Man(b1-4)GlcNAc(b1-4)GlcNAc
# In short: as §1
# [10] = molecular target: Man(a1-3)[Man(a1-6)]Man(b1-4)GlcNAc(b1-4)[Fuc(a1-6)]GlcNAc
# In short: as §1
# Man(a1-6)Man = molecular target: Man(a1-6)Man
# In short: as §1
# Man(b1-4)GlcNAc = molecular target: Man(b1-4)GlcNAc
# In short: as §1
# MurNAc(b1-4)GlcNAc = molecular target: MurNAc(b1-4)GlcNAc
# In short: as §1
# Neu5Ac(a2-3)Gal = molecular target: Neu5Ac(a2-3)Gal
# In short: as §1
# [11] = molecular target: Neu5Ac(a2-3)Gal(b1-3)GalNAc
# In short: as §1
# [12] = molecular target: Neu5Ac(a2-3)Gal(b1-3)GalNAc(b1-3)Gal(a1-4)Gal(b1-4)Glc
# In short: as §1
# [13] = molecular target: Neu5Ac(a2-3)Gal(b1-3)GalNAc(b1-4)[Neu5Ac(a2-3)]Gal(b1-4)Glc
# In short: as §1
# [14] = molecular target: Neu5Ac(a2-3)Gal(b1-3)GalNAc(b1-4)[Neu5Ac(a2-8)Neu5Ac(a2-3)]Gal(b1-4)Glc
# In short: as §1
# [15] = molecular target: Neu5Ac(a2-3)Gal(b1-3)GalNAc6S
# In short: as §1
# [16] = molecular target: Neu5Ac(a2-3)Gal(b1-3)GlcNAc
# In short: as §1
# [17] = molecular target: Neu5Ac(a2-3)Gal(b1-3)GlcNAc(b1-2)Man
# In short: as §1
# [18] = molecular target: Neu5Ac(a2-3)Gal(b1-3)GlcNAc(b1-2)Man(a1-3)[GlcNAc(b1-4)][Neu5Ac(a2-3)Gal(b1-3)GlcNAc(b1-2)Man(a1-6)]Man(b1-4)GlcNAc(b1-4)GlcNAc
# In short: as §1
# [19] = molecular target: Neu5Ac(a2-3)Gal(b1-3)GlcNAc(b1-2)Man(a1-3)[Neu5Ac(a2-3)Gal(b1-3)GlcNAc(b1-2)Man(a1-6)]Man(b1-4)GlcNAc(b1-4)GlcNAc
# In short: as §1
# [20] = molecular target: Neu5Ac(a2-3)Gal(b1-3)GlcNAc(b1-3)Gal(b1-3)GlcNAc
# In short: as §1
# [21] = molecular target: Neu5Ac(a2-3)Gal(b1-3)GlcNAc(b1-3)Gal(b1-4)GlcNAc
# In short: as §1
# [22] = molecular target: Neu5Ac(a2-3)Gal(b1-3)GlcNAc(b1-3)GalNAc
# In short: as §1
# [23] = molecular target: Neu5Ac(a2-3)Gal(b1-3)GlcNAc(b1-4)Gal(b1-4)Glc
# In short: as §1
# [24] = molecular target: Neu5Ac(a2-3)Gal(b1-3)GlcNAc(b1-6)GalNAc
# In short: as §1
# [25] = molecular target: Neu5Ac(a2-3)Gal(b1-3)GlcNAc6S
# In short: as §1
# [26] = molecular target: Neu5Ac(a2-3)Gal(b1-3)[Fuc(a1-4)]GlcNAc
# In short: as §1
# [27] = molecular target: Neu5Ac(a2-3)Gal(b1-3)[Fuc(a1-4)]GlcNAc(b1-3)Gal(b1-3)[Fuc(a1-4)]GlcNAc
# In short: as §1
# [28] = molecular target: Neu5Ac(a2-3)Gal(b1-3)[Fuc(a1-4)]GlcNAc(b1-3)Gal(b1-4)[Fuc(a1-3)]GlcNAc
# In short: as §1
# [29] = molecular target: Neu5Ac(a2-3)Gal(b1-3)[GlcNAc(b1-6)]GalNAc
# In short: as §1
# [30] = molecular target: Neu5Ac(a2-3)Gal(b1-3)[Neu5Ac(a2-6)]GalNAc
# In short: as §1
# [31] = molecular target: Neu5Ac(a2-3)Gal(b1-3)[Neu5Ac(a2-6)]GlcNAc(b1-3)[Fuc(a1-3)[Gal(b1-4)]GlcNAc(b1-6)]Gal(b1-4)Glc
# In short: as §1
# [32] = molecular target: Neu5Ac(a2-3)Gal(b1-3)]Neu5Ac(a2-3)Gal(b1-4)]GlcNAc
# In short: as §1
binder,measurement,setting,value
SP8524D-bot-399-27-399 (Bacteroides ovatus) (protein) DAKYDTLDTHAYIEEALSSTSQKVTVQATGESFTTLNVHLSNLSSTDNHYKLVTDQSVLDTYNHINGTGYIMLPKDYYTLPETITVKAGQYAADALSIALKAFSQEMMKSGESYALPVKLVLQDGSISPMENTGTFVILAESIIEFSAPMFVGAPSLKANKFTESPETYSQYTIEVRFQVANTADRDRAVFKNGGDDANFILLRFEDPQSDNENYKAHSLVQIVGRNRLYLNPSNSFKPNEWQHLALVCDGSNYRLYINGVDSGVLSIPTGATTFSDVNWFCLGDDSYSRWGNCKILMSEARIWSVVRSASQIQNNMTQVSPKSVGLEAYWRFNEGQGNVFEDATGKGHTLTTSATPTWIDGILSTDKSTEWK,glycan array binding signal (z-score),[1],0.077
same,glycan array binding signal (z-score),[2],0.342
same,glycan array binding signal (z-score),[3],-0.243
same,glycan array binding signal (z-score),[4],-0.455
same,glycan array binding signal (z-score),[5],-0.312
same,glycan array binding signal (z-score),Man(a1-3)[Man(a1-6)]Man,-0.116
same,glycan array binding signal (z-score),[6],-0.169
same,glycan array binding signal (z-score),[7],0.159
same,glycan array binding signal (z-score),[8],0.039
same,glycan array binding signal (z-score),[9],-0.341
same,glycan array binding signal (z-score),[10],-0.365
same,glycan array binding signal (z-score),Man(a1-6)Man,-0.433
same,glycan array binding signal (z-score),Man(b1-4)GlcNAc,-0.291
same,glycan array binding signal (z-score),MurNAc(b1-4)GlcNAc,-0.116
same,glycan array binding signal (z-score),Neu5Ac(a2-3)Gal,-0.419
same,glycan array binding signal (z-score),[11],0.438
same,glycan array binding signal (z-score),[12],-0.14
same,glycan array binding signal (z-score),[13],-0.508
same,glycan array binding signal (z-score),[14],0.193
same,glycan array binding signal (z-score),[15],-0.5
same,glycan array binding signal (z-score),[16],-0.179
same,glycan array binding signal (z-score),[17],-0.459
same,glycan array binding signal (z-score),[18],-0.249
same,glycan array binding signal (z-score),[19],-0.631
same,glycan array binding signal (z-score),[20],-0.249
same,glycan array binding signal (z-score),[21],-0.067
same,glycan array binding signal (z-score),[22],-0.628
same,glycan array binding signal (z-score),[23],-0.322
same,glycan array binding signal (z-score),[24],-0.136
same,glycan array binding signal (z-score),[25],0.296
same,glycan array binding signal (z-score),[26],-0.155
same,glycan array binding signal (z-score),[27],0.014
same,glycan array binding signal (z-score),[28],0.259
same,glycan array binding signal (z-score),[29],-0.093
same,glycan array binding signal (z-score),[30],-0.102
same,glycan array binding signal (z-score),[31],0.027
same,glycan array binding signal (z-score),[32],-0.212
